Assay results as given in publication PMC12136788.
The list shows a part of the results.

B1: chr3:52014989:52014990:+_ENSG00000248487_ENST00000273596|hu_hu|FALSE|FALSE (ssRNA)
RNA: GGGAGUUCUACAGUCCGACGAUCGAGUGGGUUAGUUCAAGGUAGAUGGUCAAGGAAGGCAAGCAGGACAAGGUGGAAGUCUUGCGGCUUGUGGAGGUAACAGGCAUGGCCUGCAUUGCGUAGCUUCACCACAGAGUGGUUGGGCAACAGAGGAUUGAGCAUCA
B2: chr1:78482781:78482782:+_ENSG00000162616_ENST00000370763|hu_mus|FALSE|FALSE (ssRNA)
RNA: GGGAGUUCUACAGUCCGACGAUCUAACACCACAGUGAUAGAUGACUGUUCUUUAGGGAAAUUAUGUAAGGUGCAUAGCAUGAGGAACUUAACAGAACACUGUAAAUGGACAAUUAAUGCCAAGUAACAGUAUUUUCUCUAAAACAACAGAGGAUUGAGCAUCA
B3: chr4:83276511:83276512:-_ENSG00000138668_ENST00000353341|hu_mus|motif|central (ssRNA)
RNA: GGGAGUUCUACAGUCCGACGAUCCUUCACCACCUGUUGGGGAUAAGUUGCAAAUGGAAUAAUUUAGUAUGGUUUGUAGCGGUUUUGAUGUCCACCUCGCCUGGAUACUUUCCCAUAACCACUCUGCUGAUUGCUAUAAUCACCCAACAGAGGAUUGAGCAUCA
B4: chr22:38882006:38882007:-_ENSG00000100201_ENST00000396821|hu_hu|motif|central (ssRNA)
RNA: GGGAGUUCUACAGUCCGACGAUCAGGAGGAGGAGGGGGAGGAGGAGGAGGGUAUUGGUAGGCAGUCUGCCCCAUGUAACCGGUCAUAUUGGUAGCUCCCGGAGGCUGUGCAAACUGUUGUGACAUCAGUGGCUGUGGCUGCUGCAACAGAGGAUUGAGCAUCA
B5: chr7:149068622:149068623:-_ENSMUSG00000025139_ENSMUST00000001950|mus_hu|mus_mus_mus_hu_False|1_18 (ssRNA)
RNA: GGGAGUUCUACAGUCCGACGAUCGUGAGGCCUCUGAGUGUGGCUUGUGGUCUGUCCUGGGUUAGAGUUGUUAAUAUCACGGAACAUACCAUCUAGAACGUUCCAGUCCCGCCUGACCAUCCACCCUCCAAUGGAGAAUCUGCUCAACAGAGGAUUGAGCAUCA
B6: chr7:140710375:140710376:-_ENSG00000090263_ENST00000324787|hu_hu|FALSE|FALSE (ssRNA)
RNA: GGGAGUUCUACAGUCCGACGAUCGUGGUGAUUUGGAUACCAAUCAUAAGUCUCCUUCUUCUUGGCCAAGGGCAGUUCACUAAACAGUUUCACCACUUUCAUAGACUUGGAAUUAGUAGGCCUGGUGACUUCACCAAAUAGCCGCAACAGAGGAUUGAGCAUCA
B7: chr3:185643329:185643330:-_ENSG00000136527_ENST00000456380|hu_hu|FALSE|FALSE (ssRNA)
RNA: GGGAGUUCUACAGUCCGACGAUCGACAUGGGAGAAUGGCUGUGGCUGUGCCGUCUACGAUAAUCUCGACUGUAAGACCUGCUACGUGAUCGUCUAUGGGAGCGGGAGCGAGACCGUGACCGGGUAUAAUGCCUUCGGGAGCUUCAACAGAGGAUUGAGCAUCA
B8: chr4:99962207:99962208:+_ENSG00000164024_ENST00000296411|hu_mus|FALSE|FALSE (ssRNA)
RNA: GGGAGUUCUACAGUCCGACGAUCCCCAGCAGCAAUGUCCAAAACUUCUCUGGCAAGCCUACACACGAGUCGCAUCCCUUCUAUAUCUUCAGAUGAGAGUAACUUAAUCUGAGAGGUACCUUUAAGAGCCUGCUCCGAUUCAGACAACAGAGGAUUGAGCAUCA
B9: chr11:18503389:18503390:-_ENSG00000074319_ENST00000251968|hu_hu|hu_hu_hu_mus_True|38_88 (ssRNA)
RNA: GGGAGUUCUACAGUCCGACGAUCAUUUUCCAUUUUCUCCAGAGCAGAACUGAGUUCUUCAUCCUUCUUUUUCAAAAGUUCUAUGUUUUUAUCAACUUCGGCUACUUCUUGAUCUAAGCGGGUGACCAUCUCUUCCAGUUUCUGCAACAGAGGAUUGAGCAUCA
B10: chr14:92628060:92628061:+_ENSG00000165934_ENST00000298875|hu_mus|FALSE|FALSE (ssRNA)
RNA: GGGAGUUCUACAGUCCGACGAUCUUGACAUCAUGUCCUUUACACAAUGGCAUACUGUUCAUAUAAAAGGUCUCGUAUCCUAUAAAAGUCUUGACAAAGGCAGCCUUCUAAUCCGAUGCGUCCAGUUUCUGUUCUGCGAACUGCCAACAGAGGAUUGAGCAUCA
B11: chr11:33163239:33163240:-_ENSG00000176102_ENST00000323959|hu_hu|motif|central (ssRNA)
RNA: GGGAGUUCUACAGUCCGACGAUCUCUGCCAGAACUGGGGAACUGGGCAACAAGGCGUUCAUAAGUCUUCCGUGCUUUGUCGGUAGGUUGAUUCUGUGCCUCUCGAAUGAGAAUGCUCCAAGCAUCAAGGUCAUAUGGAUUCUCCAACAGAGGAUUGAGCAUCA
B12: 107883963_107888198_179_CDS_ENSMUSG00000027889_ENSMUST00000078912|mouse|control|control (ssRNA)
RNA: GGGAGUUCUACAGUCCGACGAUCAAGCGGGAAGUGCUUGAGGCAAGGGGCGUUGCCUGGCAGGGAUCGGGCAGACUGUAGCGGAGAGGCCCCCAGACCGCUUCGAGCUUCUGGAGCGGCAGCGGAAGCUUGCAGGCCGGCCCGCAACAGAGGAUUGAGCAUCA
B13: chr11:22899103:22899104:+_ENSMUSG00000007739_ENSMUST00000173867|mus_mus|FALSE|FALSE (ssRNA)
RNA: GGGAGUUCUACAGUCCGACGAUCUAAAAUAUAGGCUCUCUCCUCUCGAAGCACUCGAUCCAUCUGGGCAUAGUCAGAUACUACUAUUUGAUUAUCCAUAUCUGUUUUAGGAGCAGAUAAGCAAAACUGAAUAAGCCCAAUCUUCAACAGAGGAUUGAGCAUCA
B14: chr7:10979719:10979720:-_ENSG00000189043_ENST00000339600|hu_hu|motif|central (ssRNA)
RNA: GGGAGUUCUACAGUCCGACGAUCUGAUCUGGCGGAGCAUGUUUGCGGCAGAGGUCUCCGACUGGAAAGGAGAGAACCGACCGGGCCACCAGGCCCUAAGCUAAAAAUUAUCUGCAAUGAGACACUACGGACUUCCAAAGUCACCAACAGAGGAUUGAGCAUCA

molecular target: T1, UNK ZnF1-3 (human, UniProt Q9C0B0 31-174); test: nsRBNS (natural sequence RNA bind-n-seq); RBNS binding buffer (assumed for nsRBNS): 25 mM Tris pH 7.5, 150 mM KCl, 3 mM MgCl2, 0.01% Triton X-100, 500 ug/ml BSA, 20 U/ml SUPERase-In, 4 C; UNK is unkempt and MSI1 is Musashi-1; names of the RNAs are library labels; protein concentration not given here; high values mean tight binding
T1 sequence: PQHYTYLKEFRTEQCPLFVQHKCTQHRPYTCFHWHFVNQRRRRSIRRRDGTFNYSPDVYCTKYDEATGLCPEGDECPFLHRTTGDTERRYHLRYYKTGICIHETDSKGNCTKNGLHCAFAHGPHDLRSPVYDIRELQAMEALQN

| Binder | binding signal |
| --- | --- |
| B1 | 1.23 enrichment R |
| B2 | 0.679 enrichment R |
| B3 | 0.785 enrichment R |
| B4 | 1.64 enrichment R |
| B5 | 0.734 enrichment R |
| B6 | 0.891 enrichment R |
| B7 | 1.52 enrichment R |
| B8 | 1.2 enrichment R |
| B9 | 0.41 enrichment R |
| B10 | 0.645 enrichment R |
| B11 | 0.787 enrichment R |
| B12 | 1.22 enrichment R |
| B13 | 1.01 enrichment R |
| B14 | 1.38 enrichment R |
